Laboratory results taken from article PMC6919601, “Identification of Plasmodium dipeptidyl aminopeptidase allosteric inhibitors by high throughput screening” (PLoS ONE, 2019).
About 230 (0.21%) of roughly 110,000 compounds showed an effect of 50% or more. The list shows a part of the results.

These compounds were tested against DPAP1 (Plasmodium falciparum, UniProt Q8IIJ9) (assay: primary screen, percent inhibition; read by cleavage of a fluorogenic dipeptide substrate; higher = more effect of the substance).
Set-up: species or system P. falciparum D10 trophozoite lysates; single well
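Note: 30 min substrate incubation versus DMSO and 10 µM JCP410 controls.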

Chain of DPAP1 (Q8IIJ9 whole entry, looked up): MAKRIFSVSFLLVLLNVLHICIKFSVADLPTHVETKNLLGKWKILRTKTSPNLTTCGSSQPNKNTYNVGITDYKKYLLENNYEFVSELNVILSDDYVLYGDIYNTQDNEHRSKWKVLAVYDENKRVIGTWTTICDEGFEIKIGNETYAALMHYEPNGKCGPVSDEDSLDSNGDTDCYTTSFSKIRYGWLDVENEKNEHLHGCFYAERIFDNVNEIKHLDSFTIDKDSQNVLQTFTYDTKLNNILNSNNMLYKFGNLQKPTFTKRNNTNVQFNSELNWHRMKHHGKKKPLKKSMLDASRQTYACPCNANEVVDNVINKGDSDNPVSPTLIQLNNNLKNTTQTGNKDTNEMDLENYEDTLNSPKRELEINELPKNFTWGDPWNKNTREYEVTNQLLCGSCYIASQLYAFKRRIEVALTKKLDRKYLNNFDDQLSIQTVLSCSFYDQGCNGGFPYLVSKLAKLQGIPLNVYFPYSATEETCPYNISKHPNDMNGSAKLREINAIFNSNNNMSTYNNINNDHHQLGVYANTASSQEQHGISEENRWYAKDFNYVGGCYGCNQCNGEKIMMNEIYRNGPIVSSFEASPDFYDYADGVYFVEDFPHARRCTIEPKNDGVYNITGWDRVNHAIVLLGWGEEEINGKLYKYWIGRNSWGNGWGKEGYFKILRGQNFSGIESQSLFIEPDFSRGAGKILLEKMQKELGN

Row | Compound | % Inhibition @ 10 uM [%]
1 | Cc1ccc(NC(=O)c2sc3nc(-c4ccncc4)ccc3c2N)c(Br)c1 | -9.45
2 | C=CCNC(=O)c1cc(-c2ccccc2O)on1 | -1.84
3 | CN1CCN(C(=O)c2ccc(CS(=O)(=O)c3c(Cl)cccc3Cl)o2)CC1 | -6.89
4 | COc1cc(CNC2C3CC4CC(C3)CC2C4)ccc1OCc1cccs1 (stereo not shown) | 4.85
5 | CCC1CCCCN1C/C=C/c1ccccc1[N+](=O)[O-] (stereo not shown) | -3.57
6 | COc1ccccc1NC(=O)C1=C(C)Nc2ncnn2C1c1ccccc1OC (stereo not shown) | -2.86
7 | c1ccc(OCCn2c(CN3CCCCC3)nc3ccccc32)cc1 | -1.31
8 | Nc1c(C(=O)Nc2ccccc2)cc(O)c2c1C(=O)c1ccccc1C2=O | -1.07
9 | N=C1/C(=C/c2ccc(SCc3ccco3)o2)C(=O)N=C2SC=CN12 | 17.5
10 | CCC(C(=O)NCc1ccccc1Br)n1sc2ccccc2c1=O (stereo not shown) | 0.39
11 | CN(C)CCOC1c2ccccc2C=Cc2ccccc21 | -3.16
12 | CC/N=c1\c(NS(=O)(=O)c2cccs2)c(O)oc2ccccc12 | -2.78
13 | CC(C)Cn1cc(NC(=O)NCCc2ccsc2)c2ccccc2c1=O | -1.79
14 | COc1cccc(C2/C(=C(/O)c3ccccc3)C(C)=Nc3nc4ccccc4n32)c1 (stereo not shown) | -0.703
15 | Cc1cccc(NC(=O)c2cc(-c3ccc(C)o3)nc3ccccc23)n1 | 5.24
16 | CCN1CCN(Cc2cc(OC)cc(OC)c2)CC1 | 7.2
17 | O=C(O)c1ccc(CNC(=O)c2cccnc2C(=O)O)cc1 | -1.52
18 | COc1ccc(S(=O)(=O)NCc2ccccn2)c(Cl)c1Cl | 1.27
19 | COc1ccc(C2CC(c3c(O)cc(C)oc3=O)=NCCS2)c(OC)c1 (stereo not shown) | -0.128
20 | CC1(C)CC(OC(=O)c2ccccc2)CC(C)(C)N1OC(=O)c1ccccc1 | 2.18
21 | CC(C)C(=O)NCCc1nc2ccccc2n1C(C)c1ccccc1 (stereo not shown) | -1.74
22 | COc1ccc(C2C3=C(O)CCCC3=NC(C)=C2C(=O)Nc2nc3ccccc3s2)c(OC)c1 (stereo not shown) | -2.87
23 | COc1cc(NCc2cc[n+](C)cc2)cc(OC)c1OC | -4.4
24 | O=C(CCn1c(=O)c2cccn2c2cccnc21)Nc1ccc(Br)cn1 | 4.39
25 | Cc1ccccc1-c1nc(CN2CCC(C(=O)NCCN3CCCC3)CC2)c(C)o1 | 2.37
26 | COc1ccc(CCNC(=O)c2ccc(CS(=O)(=O)Cc3ccc(C)cc3)o2)cc1OC | 0.514

Row | Compound | % Inhibition @ 10 uM [%]
27 | Cc1ccc(NC(=O)COc2ccc(S(=O)(=O)NC(C)(C)C)cc2)cc1Cl | -3.37
28 | Clc1cccc(N2CCN(C3CCN(CCc4ccccc4)CC3)CC2)c1 | -3.82
29 | CCC(Oc1ccccc1)C(=O)Nc1c(C)cccc1C (stereo not shown) | -0.132
30 | O=C(COc1ccc(Br)cc1)NCCC1=CCCCC1 | 0.245
31 | Cc1nc2c(oc3nc(-c4ccco4)c4c(c32)CC(C)(C)OC4)c(-c2ccccc2)c1C(=O)O | -1.06
32 | Cc1c2c(nc3c(C)cccc13)OC(C)C2 (stereo not shown) | -2.24
33 | O=C(Nc1noc2ccccc12)C(F)(F)F | -2.85
34 | Nc1nc2ccccc2n1Cc1ccc(Cl)cc1 | -2.2
35 | Oc1ccccc1C(=S)N1CCOCC1 | 4.68
36 | CSc1ncc2c(n1)SC(C(=O)N1CCN(c3cccc(Cl)c3)CC1)C2=O (stereo not shown) | -3.58
37 | O=C(c1cc2ccccc2o1)c1nc2c(n1O)CCCC2 | -7.33
38 | CCCc1nnc(NC(=O)CCN2C(=O)C3C4C=CC(C4)C3C2=O)s1 (stereo not shown) | -0.551
39 | CC(C)CCN1C(=O)c2ccc(C(=O)Nc3cnc(O)nc3O)cc2C1=O | 4.85
40 | COc1ccc(/C=C2/C(=N)N3OC(C)=CC3=NC2=O)cc1Cl | -1.43
41 | C/C(Cl)=C/Cn1c(SCc2ccccc2)nc2c1c(=O)[nH]c(=O)n2C | 2.46
42 | COc1ccc2oc(=O)c(C(=O)NCc3cccnc3)cc2c1 | -1.92
43 | CN(C)CCNc1sc(S(C)(=O)=O)nc1S(=O)(=O)c1ccc(Cl)cc1 | -0.522
44 | O=C1c2ccccc2S(=O)(=O)N1Cc1ccc(Cl)cc1Cl | 1.97
45 | CCN1CCC(NCc2ccc(Cl)cc2Cl)CC1 | -3.74
46 | CC(CNC(=O)c1ccc2nc(N3CCCCC3)sc2c1)c1ccccc1 (stereo not shown) | 2.65
47 | CCOc1cc(/C=C2\C(=O)ON=C2c2ccc(Cl)cc2)ccc1OC | -1.17
48 | CC(NC(=O)C(C)N1C(=O)C2C3C=CC(C3)C2C1=O)c1ccccc1 (stereo not shown) | -3.33
49 | Nc1cc(-c2nc3ccccc3s2)ccc1Br | -0.294
50 | CC/N=C1/SC(CC(=O)Nc2ccccc2Cl)C(=O)N1C1CCCCC1 (stereo not shown) | -1.98
51 | CN(Cc1ccccc1)C(=O)Cn1nnc2sc3c(c2c1=O)CCCC3 | 0.758
52 | CCOc1cc(C2Nc3ccccc3N=C3CC(c4cccs4)CC(O)=C32)ccc1OC (stereo not shown) | 4.11

Row | Compound | % Inhibition @ 10 uM [%]
53 | O=C(N1CCn2c3c(c4cc(C5CCCCC5)ccc42)CCCC31)C12CC3CC(CC(C3)C1)C2 (stereo not shown) | -7.07
54 | Cc1ccc(CNC(=O)CN(C)S(=O)(=O)c2ccc3nc(C)sc3c2)cc1 | -2.25
55 | O=C1C2C=COC2C2c3ccccc3CCC2N1Cc1ccccc1 (stereo not shown) | 0.727
56 | COC(=O)c1cc(S(=O)(=O)N2CCN(Cc3ccccc3)CC2)cn1C | 3.92
57 | CCC(CC)C(=O)Nc1cccc(C(C)=O)c1 | 5.24
58 | Cn1ncc([N+](=O)[O-])c1C(=O)Nc1ccc(C(=O)O)cc1 | -0.216
59 | COc1ccc(CCc2nc(C)cc(CN(C)C)c2O)cc1OC | 1.54
60 | O=C(Nc1nn2c(-c3ccco3)nnc2s1)c1ccccc1 | 32.4
61 | Cc1cccc(C(=O)Nc2sc3c(c2C(=O)N(C)C)CCCCC3)c1 | 1.03
62 | CC(C)CC(NC(=O)c1cnc(-c2ccncc2)s1)C(=O)NCC#N (stereo not shown) | -3.97
63 | CCN1CCc2c(sc(N)c2C(=O)OC)C1 | -0.0309
64 | CCCCc1nn2c(=O)cc(CSc3n[nH]c(CC(C)C)n3)nc2s1 | -4.14
65 | CC(=O)NC1=NC(=O)CC(c2ccccc2Cl)N1 (stereo not shown) | 0.331
66 | CCNC(=S)N1CCc2cc(OC)c(OC)cc2C1COc1ccc(F)cc1 (stereo not shown) | 4.37
67 | N#Cc1c(N)nc2c(c1-c1ccc(Cl)cc1)CCC2 | 30
68 | Cc1cc(C)c2nc(N3CCC(C(=O)NCCCN4C(C)CCCC4C)CC3)sc2c1 (stereo not shown) | 0.137
69 | CCNC(=S)NCCc1c(C)[nH]c2ccc(C)cc12 | -2.16
70 | CCNCC(O)COc1ccccc1 (stereo not shown) | -2.91
71 | OCCN(Cc1ccccc1)Cc1c(F)cccc1Cl | -3.27
72 | CC1CCCC(C)N1CCCNC(=O)C1CCN(c2ncnc3c2nc2n3CCCCC2)CC1 (stereo not shown) | -2.46
73 | CCOC(=O)c1cc(C(=O)NCc2ccccc2)c(O)nc1C | 4.1
74 | CC(=O)Nc1ccc(C2(C#N)CCCC2)cc1 | 5.31
75 | Cc1ccnc(N2COc3ccc4c(-c5ccccc5)cc(=O)oc4c3C2)c1 | -3.9
76 | CN1CCN(c2ccc(NC(=O)c3ccc(Cl)cc3Cl)cc2)CC1 | 2.43
77 | Cc1noc(C)c1CCNC(=O)CCc1c(C)nc2c(c1C)c(=O)n(C)c(=O)n2C | 3.75
78 | O=C(c1ccccc1F)N1CCN(Cc2cccc3ccccc23)CC1 | -2.94

Row | Compound | % Inhibition @ 10 uM [%]
79 | CCN(CC)CC(C)CNC(=O)C1CCN(S(=O)(=O)CC)CC1 (stereo not shown) | -4.83
80 | CC(C)(C)C1CCc2c(sc(N)c2C(N)=O)C1 (stereo not shown) | 15.5
81 | O=c1/c(=C/c2ccco2)sc2nc(-c3cccs3)nn12 | -1.52
82 | CCOC(=O)N1CCN(C(=O)C2CCN(C(=O)c3ccccc3C)CC2)CC1 | -3.41
83 | CCOC(=O)c1c(NC(=O)CNC(C)(C)C)sc2c1CCCCC2 | 2.92
84 | COC(=O)c1sccc1S(=O)(=O)N1CCCCC1 | 0.762
85 | O=S(=O)(Nc1ccc(Cl)c(Cl)c1)c1ccc(F)cc1 | 3.27
86 | O=C(CSc1nnc(-c2ccc(Br)cc2)o1)NCc1ccccc1 | -5.6
87 | Cc1ccccc1NC(=O)CN1C(=O)C2C3CCC(C3)C2C1=O (stereo not shown) | -1.79
88 | CC12CN3CC(C)(CN(C1)C3c1ccccc1O)C2 (stereo not shown) | 1.62
89 | O=c1/c(=C/c2ccccc2F)sc2nc(-c3cccc(Cl)c3)nn12 | 5.44
90 | CSc1nc2n(n1)C(c1ccccc1Cl)C1=C(O)CC(C)(C)CC1=N2 (stereo not shown) | -3.37
91 | CNC(=O)NC1CCCCc2sccc21 (stereo not shown) | 7.47
92 | COc1ccc(NC(=O)Nc2cccc(C(F)(F)F)c2)cc1 | 3
93 | COc1ccc(C(=O)/C=C/c2cccs2)c(OC)c1 | 5.85
94 | CCCCNS(=O)(=O)c1ccc2nc(-c3cccnc3)cc(C(=O)NCCC3=CCCCC3)c2c1 | 0.238
95 | CCOC(=O)C1=C(C)N=C(SC)N(C(C)=O)C1c1ccccc1 (stereo not shown) | -2.56
96 | CCOc1ccc(CCNC(=O)Cn2nc(C)n3c(cc4sccc43)c2=O)cc1 | -1.58
97 | COc1ccc(C2C=C(c3ccc(Br)s3)Nc3nnnn32)c(OC)c1 (stereo not shown) | 3.32
98 | Cc1ccc(-c2csc(NC(=O)CCCC(=O)O)n2)c(C)c1 | 0.687
99 | Cc1ccc(/C=C2/NC(=O)N(Cc3ccccc3F)C2=O)cc1 | -3.63
100 | COCCNC(=O)c1ccc2c(c1)ncn2-c1ccccc1OC | 4.35
101 | CCOc1ccc2nc(N3CCC(C(=O)O)CC3)sc2c1 | -5.15
102 | COc1ccc(N2C(=O)c3cccc4cccc(c34)C2=O)c(OC)c1 | 3.65
103 | OCCN(Cc1ccccc1)Cc1ccc(Cl)cc1Cl | -9.93
